Hit rate of the full screen: of about 48,000 compounds, about 120 (0.25%) were called active. Not shown: some 4% with an inconclusive outcome. The call rests on the fitted dose curve; in most records, active means well fitted activation curve with a large enough effect; inconclusive means small, poorly fitted or top-dose-only effect, or another doubt; inactive means no such curve, though single readings can be large or run the other way. This is one part of the list.
experiment: Primary qHTS for Identification of Small Molecule Activators of Huntingtin-Antisense Promoter Activity; details: HEK293 HTT-AS promoter firefly luciferase reporter, 24 h; series mostly up to 57.5 µM; activity change, positive = activation: at the top concentration; further: nearly all actives have a fitted effect of over 55% in size
Outline: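 HEK293 Fluc reporter, 2,500 cells/well, 24 h pre-culture; cpds up to 57.5 uM final, 24 h 37 degrees C; Dual-Glo, 10 min RT; normalized vehicle = 0%, zero RLU = -100%.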

Activity change, positive = activation, inactive:
Cc1cc(C)cc(Nc2cc(C(=O)NCCCN(Cc3ccccc3)C(C)C)c3ccccc3n2)c1 -49%
COc1ccc(N2CCN(S(=O)(=O)c3csc(C(N)=O)c3)CC2)cc1 -25.6%
Cc1cccc(C)c1OCCSc1nc2ccccc2n1CC(=O)O -10.1%
CCN(Cc1ccccc1)C(=O)Cn1c(=O)n(-c2ccc(F)c(Cl)c2)c(=O)c2sc3ccccc3c21 -6.59%
O=C(Nc1cccc(-c2nc3ccccc3o2)c1)c1cc([N+](=O)[O-])ccc1N1CCOCC1 -17.8%
CC(=O)Nc1ccc(NS(=O)(=O)c2ccc3c(c2)CC(C)N3C(=O)C2CCC2)cc1 (stereo not drawn) -26.4%
COC(=O)CC1Oc2ccc(F)cc2-n2cc(-c3ccc(Cl)cc3)nc21 (stereo not drawn) -25%
COc1ccc(NC(=O)CN2CCCN(S(=O)(=O)c3ccc(Br)cc3)CC2)c(OC)c1 4.51% [at 11.5 µM, percent change from vehicle, -100% = no light]
Cc1cccc(-c2nc(CCNC(=O)c3ccco3)cs2)c1 -19.5%
CCOC(=O)c1ccc(NC(=O)CCS(=O)(=O)c2ccc(C)cc2)cc1 -24.6%
O=C(c1cc2ccc3cccnc3c2[nH]1)N1CCN(c2cccc(C(F)(F)F)c2)CC1 0.824%
Cc1ccc(NC(=O)c2oc3ccc(S(=O)(=O)N4CCCCC4)cc3c2C)cc1C 1.51%
COc1ccc2c(c1)c1c(c(=O)n(CCc3ccccc3)c(=O)n1Cc1ccccc1)n2C -10.8%
Cc1ccc(C)c2sc(NC(=O)c3ccc(S(=O)(=O)N4CCCC4)cc3)nc12 -29.8%
CCOc1ccc(CNC(=O)c2ccc3c(c2)nc2n3CCOC2)cc1 19.2%
CC(=O)N1CCOc2cc(S(=O)(=O)NCc3ccc(C)cc3)c(C)cc21 -10.7%
Cc1c(CNCc2ccc(OC(C)C)cc2)c(C(=O)O)c(C)n1Cc1ccc(Cl)cc1 -7.26%
CCN1CCN(CCCNC(=O)c2cc3c(=O)n(CC)c4ccccc4c3s2)CC1 -2.13%
COc1ccc(N(C(=O)c2ccccc2F)S(=O)(=O)c2ccc3c(c2)n(C)c(=O)n3C)cc1 -8.17%
COc1ccc(-c2cc(C(F)(F)F)nc(SCC(=O)N(C)Cc3ccccc3)n2)cc1OC -36.1%
COc1ccc2nc(S(=O)Cc3ncc(C)c(OC)c3C)[nH]c2c1 (stereo not drawn)
CCN1c2ccccc2-c2nc(SCC(=O)Nc3cccc(C(F)(F)F)c3)ncc2S1(=O)=O -25.7%
CCC(C)(C)NS(=O)(=O)c1cc(-c2cc(C)no2)ccc1C -21.2%
COc1cc(O)ccc1C1CC(=O)Nc2c1c(=O)nc(SCc1ccccc1C)n2C (stereo not drawn) -15%
Cc1ccc(C)c(CN2C(=O)c3ccccc3S(=O)c3ccc(C(=O)N4CCC(C)CC4)cc32)c1 (stereo not drawn) -38.1%
COc1ccc(CNc2oc(-c3ccc(COc4ccc(Cl)cc4)o3)nc2C#N)cc1 -60.4%
CCOC(=O)c1cccc(NC(=O)c2cc(S(=O)(=O)N3CCCCCC3)cn2C)c1 -37.5%
CCOC(=O)CSc1nc2sc3c(c2c(=O)n1Cc1ccccc1)CCC(C(C)(C)C)C3 (stereo not drawn) 12.8%
COc1ccc(CNC(=O)c2c(Nc3ccc(OC)cc3OC)sc(C(=O)c3ccc(Cl)cc3)c2N)cc1 -19.2%
O=C(CN1C(=O)C2(CCCC2)NC[C@H]1c1cc(F)cc(F)c1)Nc1ccc2c(c1)C[C@@]1(C2)C(=O)Nc2ncccc21 -11.2%
CCN(CC)C(=O)CSc1nc2cc3c(cc2c(=O)n1CCCCCC(=O)NCCc1ccc(OC)c(OC)c1)OCO3 -18%
COc1ccc(CNC(=O)c2ccc3c(c2)N(Cc2ccccc2F)C(=O)c2ccccc2S3(=O)=O)cc1 -15.8%
CCOc1ccc(NC(=O)c2c(NCc3sccc3C)sc3c2CCCCC3)cc1 -15.2%
COCCNC(=O)CCc1c(C)nc2c(c(C)nn2-c2ccc(C)cc2)c1C -12.1%
Cc1cc(F)ccc1NC(=O)CN(C)S(=O)(=O)c1ccc(C(=O)N2CCOCC2)s1 -6.78%
N#Cc1c(C(F)(F)F)cc(-c2cccs2)nc1SCC(=O)Nc1ccc(F)cc1 -23.1%
CCCN(CCC)c1nc(-c2ccccc2F)nc2ccccc12 -12.8%
O=C(CSc1nc2c([nH]c3ccccc32)c(=O)n1-c1ccc(F)cc1)NC1CCCCC1 -39.5%
CCc1ccccc1NC(=O)CSC1=Nc2ccccc2C2=NC(Cc3ccccc3)C(=O)N12 (stereo not drawn) -18.3%
O=C(COc1ccc([N+](=O)[O-])cc1)Nc1cccc2cccnc12 1.79%
COc1ccc(OCc2ccc(-c3nc(C#N)c(N4CCN(c5cccc(Cl)c5)CC4)o3)o2)cc1 -7.34%
Cc1ccc(-n2nc(C)c3c(C(=O)NCc4ccc(F)cc4)cc(C)nc32)cc1 -13.6%
Cc1cccc(N2CC(C)Cn3c2nc2c3c(=O)n(CC(=O)O)c(=O)n2C)c1 (stereo not drawn) -4.83%
CCc1cccc(NC(=O)CCc2nc3cccnc3n2-c2ccccc2)c1 -9.55%
CSc1ccc(CCNC(=O)c2ccc(CS(=O)(=O)c3ccc(Br)cc3)o2)cc1 -32.5%
COCCNC(=O)c1cccc(Nc2nc3ccccc3n3nnnc23)c1 -9.19%
CCOc1cc(CNC(=O)c2ccc3c(c2)N(C)C(=O)C2CCCCN32)cc(OCC)c1OCC (stereo not drawn) -24%
O=C(Nc1ccc(F)cc1F)c1cc2c(=O)n3ccccc3nc2s1 5.52%
CCOC(=O)N1CCc2c(sc(NCc3ccc(N(C)C)cc3)c2C(=O)Nc2ccc(OC)cc2)C1 -35.1%
CC1CCc2c(sc(NC(=O)c3ccc(Cl)cc3Cl)c2C#N)C1 (stereo not drawn) 0.732%
COc1ccc(CNC(=O)c2cc3cc(S(=O)(=O)N4CCCCC4)ccc3n2C)c(OC)c1 -26.4%
O=C1N(Cc2cccc(C(F)(F)F)c2)c2ccccc2S(=O)(=O)N1c1cccc(Cl)c1 -32.7%
COc1ccc(NC(=O)CCc2c(C)nc3c(c2C)c(=O)n(C)c(=O)n3C)cc1OC -14.3%
COc1ccc(NC(=O)CSc2nc(-c3cccs3)cc(C(F)(F)F)c2C#N)cc1 8.19%
Cc1c(Cl)cccc1N1C(N)=C(C#N)C(c2cc(CN3CCOCC3)cs2)C2=C1CCCC2=O (stereo not drawn) -15.2%
Cc1cc(NC(=O)NCc2ccc3c(c2)CCN3C(=O)c2ccccc2)ccc1Br -45.9%
CCOc1ccc(S(=O)(=O)c2cn(Cc3ccccc3)c3ccc(OCC)cc3c2=O)cc1 -15.7%
CC(C)(C)OC(=O)N1CCC(c2c(C(=O)NCc3ccco3)cnn2-c2ccccc2)CC1 -12.9%

From PubChem BioAssay AID1508624 (National Center for Advancing Translational Sciences (NCATS), 2021)
